Substitutions are numbered along the chain they refer to. Where two headings read alike, the source gives them in different places. Results are given in words; binding and its absence hold for the method and conditions named. Binding seen in cells or lysates may run through a third protein. Some results given as binding are weak or reduced against the parent protein; the word gives no strength. Where a sequence is shown, tags or fusion partners need not be part of it. Blank lines part the entries; values can stand above or below the molecule they belong to.
How the values were obtained:
[1] = biological target: T1, SUSA2-FLAG (Arabidopsis thaliana) (UniProt Q9FKT0); assay: co-IP; Arabidopsis stable transgenic lines carrying both transgenes; for CHS1-HA and TN2-HA in Col-0, hsp90.3-1 and sgt1b backgrounds
T1 sequence: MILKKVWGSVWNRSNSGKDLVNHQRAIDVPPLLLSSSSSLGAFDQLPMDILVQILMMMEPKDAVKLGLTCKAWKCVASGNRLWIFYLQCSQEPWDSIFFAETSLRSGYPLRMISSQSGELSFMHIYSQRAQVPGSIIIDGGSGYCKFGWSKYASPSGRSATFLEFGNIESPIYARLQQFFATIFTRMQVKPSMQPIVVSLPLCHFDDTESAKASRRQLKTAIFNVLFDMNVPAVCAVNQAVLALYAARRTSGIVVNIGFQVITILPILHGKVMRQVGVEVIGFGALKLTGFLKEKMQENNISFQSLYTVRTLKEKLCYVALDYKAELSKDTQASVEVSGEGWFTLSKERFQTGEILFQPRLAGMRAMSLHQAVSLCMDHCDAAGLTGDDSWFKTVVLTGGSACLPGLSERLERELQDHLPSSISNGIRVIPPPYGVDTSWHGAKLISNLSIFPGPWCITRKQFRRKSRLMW

The chains behind the UniProt entries cited, without tags or fusion partners.
UniProt Q39255: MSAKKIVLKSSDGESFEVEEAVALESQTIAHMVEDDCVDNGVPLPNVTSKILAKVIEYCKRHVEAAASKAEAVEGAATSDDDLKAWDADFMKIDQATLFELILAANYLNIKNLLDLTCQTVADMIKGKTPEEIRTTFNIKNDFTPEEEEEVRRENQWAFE

[2] = biological target: T2, SUSA2-NLuc (Arabidopsis thaliana) (UniProt Q9FKT0); assay: split reporter; split-luciferase; CLuc and NLuc fusions co-infiltrated into N. benthamiana leaves at OD600 = 0.2, luciferin infiltrated after 48 h
T2 sequence: T1 sequence

[3] = biological target: T3, DN-SUSA2-NLuc (Arabidopsis thaliana) (UniProt Q9FKT0); assay: as above
T3 sequence: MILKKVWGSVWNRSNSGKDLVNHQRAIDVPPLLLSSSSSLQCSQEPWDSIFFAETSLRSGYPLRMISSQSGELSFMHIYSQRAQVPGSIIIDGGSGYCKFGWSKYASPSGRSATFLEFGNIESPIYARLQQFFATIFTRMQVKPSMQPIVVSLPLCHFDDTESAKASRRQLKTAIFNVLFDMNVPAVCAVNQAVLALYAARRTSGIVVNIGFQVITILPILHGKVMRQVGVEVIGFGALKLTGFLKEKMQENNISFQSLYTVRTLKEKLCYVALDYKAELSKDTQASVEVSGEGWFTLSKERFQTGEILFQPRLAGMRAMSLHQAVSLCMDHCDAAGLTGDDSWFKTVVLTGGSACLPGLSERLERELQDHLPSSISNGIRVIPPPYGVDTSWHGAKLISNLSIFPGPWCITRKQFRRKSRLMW

[4] = biological target: T4, DN-SUSA2-FLAG (Arabidopsis thaliana) (UniProt Q9FKT0); assay: co-IP; proteins transiently co-expressed in N. benthamiana leaves, harvested after 48 h; GTEN buffer (25 mM Tris-HCl pH 7.5, 150 mM NaCl, 1 mM EDTA, 0.15% NP-40, 10 mM DTT); FLAG-tagged protein precipitated with anti-FLAG M2 beads, 3 h at 4 °C; western blot
T4 sequence: T3 sequence

[5] = biological target: T1, SUSA2-FLAG (Arabidopsis thaliana); assay: co-IP; Arabidopsis stable transgenic lines carrying both transgenes; for CHS1-HA and TN2-HA in Col-0, hsp90.3-1 and sgt1b backgrounds; remark: listed apart in the source
[6] = biological target: T5, SAUL1-C29A-FLAG (Arabidopsis thaliana) (UniProt Q9LM76); assay: co-IP; proteins transiently co-expressed in N. benthamiana leaves, harvested after 48 h; GTEN buffer (25 mM Tris-HCl pH 7.5, 150 mM NaCl, 1 mM EDTA, 0.15% NP-40, 10 mM DTT); FLAG-tagged protein precipitated with anti-FLAG M2 beads, 3 h at 4 °C; western blot
T5 sequence: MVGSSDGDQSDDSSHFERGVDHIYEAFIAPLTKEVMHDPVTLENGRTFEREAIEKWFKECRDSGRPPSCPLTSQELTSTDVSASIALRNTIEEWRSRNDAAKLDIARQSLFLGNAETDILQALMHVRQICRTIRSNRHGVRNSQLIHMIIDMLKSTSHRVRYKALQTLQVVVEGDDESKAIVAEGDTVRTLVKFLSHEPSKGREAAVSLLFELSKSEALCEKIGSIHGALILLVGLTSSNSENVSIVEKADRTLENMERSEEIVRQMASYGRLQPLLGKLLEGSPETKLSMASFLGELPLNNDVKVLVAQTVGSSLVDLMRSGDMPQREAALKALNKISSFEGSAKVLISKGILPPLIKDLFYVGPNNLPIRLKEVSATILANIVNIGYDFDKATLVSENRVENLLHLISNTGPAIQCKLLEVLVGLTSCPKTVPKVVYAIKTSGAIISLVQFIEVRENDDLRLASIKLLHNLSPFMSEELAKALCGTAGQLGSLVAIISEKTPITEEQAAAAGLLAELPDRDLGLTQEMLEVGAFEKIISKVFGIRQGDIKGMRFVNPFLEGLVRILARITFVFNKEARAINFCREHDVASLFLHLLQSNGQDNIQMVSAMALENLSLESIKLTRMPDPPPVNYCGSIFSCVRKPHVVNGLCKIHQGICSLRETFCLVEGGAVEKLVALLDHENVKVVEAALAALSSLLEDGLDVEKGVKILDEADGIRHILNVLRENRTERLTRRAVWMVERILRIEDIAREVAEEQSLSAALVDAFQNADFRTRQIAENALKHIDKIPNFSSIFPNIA

binding [1]: binds
Molecule: ASK1-HA (from UniProt Q39255 1-160)

binding [2]: binds
Molecule: ASK1-CLuc (from UniProt Q39255 1-160)

binding [3]: binds weakly
B1: SGT1b-CLuc (protein, UniProt Q9SUT5 1-358)
chain: MAKELAEKAKEAFLDDDFDVAVDLYSKAIDLDPNCAAFFADRAQANIKIDNFTEAVVDANKAIELEPTLAKAYLRKGTACMKLEEYSTAKAALEKGASVAPNEPKFKKMIDECDLRIAEEEKDLVQPMPPSLPSSSTTPLATEADAPPVPIPAAPAKPMFRHEFYQKPEEAVVTIFAKKVPKENVTVEFGEQILSVVIDVAGEEAYHLQPRLFGKIIPEKCRFEVLSTKVEIRLAKAEIITWASLEYGKGQSVLPKPNVSSALSQRPVYPSSKPAKDWDKLEAEVKKQEKDEKLDGDAAMNKFFSDIYSSADEDMRRAMNKSFAESNGTVLSTNWKEVGTKKVESTPPDGMELKKWEY

binding [4]: no binding
B2: HA-SAUL1 (protein, UniProt Q9LM76 1-801)
chain: T5 sequence with A29C

binding [4]: binds
B3: CHS1-HA (protein, UniProt F4I902 1-420)
chain: MSTSYSFLLAGRELDVFLSFSGKIALDVDFGYDLSRNGIKAFKSESWKESSFKPIDLRTLEALTESKVAVVMTSDEEVSSVGFLEELIVIIEFQEKRSLTVIPVFLTKHPLDVEKVSQIFPERAKIWRTAIAKLDNIAAQYSFSRNLAVMHGTHRIKQIADDIRLMFLSSASSDFKGLAGMDRHMKALYALLALESDEKVRTIGIWGSSGVGKTTLARYTYAEISVKFQAHVFLENVENMKEMLLPSENFEGEDLRSVNHEMNEMAEAKQKHRKVLLIADGVNNIEQGKWIAENANWFAPGSRVILITQEKSLLVQSGVNHVYEVGSLRYDEALQLFSRFAFKQPYPSPDFERLSVRAVQLAGFLPVTIRLFGSFLTGRDKEEWEATLLKLNAKQGKDIKEVWKIMEALEDKDIVEASQR

binding [4]: binds
B4: CHS1-Turbo-HA (protein, UniProt F4I902 1-420)
chain: B3 chain

binding [5]: binds
B5: CHS1-HA (Arabidopsis stable transgenic lines) (protein, UniProt F4I902 1-420)
chain: B3 chain

binding [6]: no binding
B6: SUSA2-HA (protein, UniProt Q9FKT0 1-471)
chain: T1 sequence
